Assay results reported in PubChem BioAssay AID686970 (National Center for Advancing Translational Sciences (NCATS), 2013).
Among all 360,000 compounds or so, about 6,000 (1.7%) were called active. This list was built around the results that the source calls inconclusive (neither active nor inactive); the mix of calls is not that of the screen. The call rests on the fitted dose curve; in most records, active means well fitted cell-killing curve with a large enough effect; inconclusive means small, poorly fitted or top-dose-only effect, or effect the other way; inactive means flat fitted curve, though single readings scatter. Potencies of inconclusive entries are left out as doubtful fits.

assay: qHTS for induction of synthetic lethality in tumor cells producing 2HG: qHTS for the HT-1080-NT fibrosarcoma cell line; details: HT-1080-NT fibrosarcoma viability, CellTiter-Glo ATP luminescence, 48 h; activity, negative = less viability: at 46.1 µM (top of the series) unless noted;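 further: NT is the 2HG producing partner of a matched IDH1 knockdown line; nearly all actives have a fitted effect of over 55% in size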;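 on activity, negative = less viability: 0% = DMSO-treated cells and -100% = media-only wells without cells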
How it was run: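 HT-1080-NT; 750 cells/well; 5% FBS RPMI; 48 h compound, 37 degrees C; CellTiter-Glo luminescence; curve fitting and curve-class assignment.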
Potency means the concentration at half of the fitted maximal effect; tags describe the fitted curve by direction and shape.

SMILES | Potency | activity, negative = less viability
Cc1ccc(S(=O)(=O)NNc2ccccc2)c(C)c1 | inactive | 
O=C(Cc1ccccc1[N+](=O)[O-])N1CCc2ccccc2C1 | inconclusive [cytotoxic, single point] | 
O=C(Cn1sc2ccccc2c1=O)Nc1ccc(Cl)cc1 | inconclusive [cytotoxic, single point] | 
O=C(O)CSc1nnc(COc2ccc(Br)cc2)n1-c1ccccc1 | inactive | 
CCN(CC)CCNc1ccc2nnc(CCNS(=O)(=O)c3ccc(C)cc3)n2n1 | inactive | 
CC(C)c1ccc2c(c1)CC[C@H]1[C@](C)(CN)CCC[C@]21C | active: 18.4 µM | 
Cc1cc(/C=C2\SC(=S)NC2=O)c(C)n1-c1ccc(O)cc1 | inconclusive [cytotoxic, single point] | 
COc1ccc(C(=O)C[n+]2cccc3cc(OC)ccc32)cc1 | inactive | 
O=C(N/N=C/c1ccc2cccc(OCc3ccccc3)c2n1)c1ccc(Cl)cc1 | inconclusive [cytotoxic, single point] | 
Cc1ccc(CNC(=O)C2CCN(S(=O)(=O)N3CC(C)CC(C)C3)CC2)cc1 (centres undefined) | inconclusive [rising, partial curve] | 
COc1ccc(-c2nnc(SCC#N)o2)cc1 | inconclusive [rising, partial curve] | 
COc1ccc(OCCC(=O)c2ccc(OC)cc2)cc1 | inconclusive [cytotoxic, partial curve, poor fit] | 
CCCCOc1ccc(-c2ncc(N)cn2)cc1 | inactive | 
COc1cc(NC(=S)N2CCN(C)CC2)cc(OC)c1 | inactive | 
O=C(NC1CCCCCC1)c1[nH]c(C(F)(F)F)nc1-c1ccccc1 | inconclusive [cytotoxic, single point] | 
CC(C)C[C@@H](CN1CCC[C@H]1CN1C(=O)C(=O)NC[C@@H]1Cc1ccccc1)N1C[C@H](Cc2ccc(O)cc2)N(CC2CCCCC2)C(=O)C1=O | inconclusive [cytotoxic, single point] | 
O=C(Cn1ncc2c(=O)oc3ccccc3c21)N1CCN(c2ccccn2)CC1 | inconclusive [cytotoxic, single point] | 
CCN(CC)c1ccc(NC(=O)COC(=O)/C=C/c2nc3ccccc3s2)cc1 | inactive | 
COc1ccc(Cl)c(-c2cc(C(=O)Nc3ccccc3)[nH]n2)c1 | inconclusive [cytotoxic, single point] | 
COc1ccccc1-n1nc(C)c(-c2ccccc2)c1N | inactive | 
OC[C@H]1O[C@@H](c2nc3ccc(-c4nc(-c5ccc(Br)cc5)no4)cc3[nH]2)C[C@@H]1O | active: 18.4 µM | 
Cc1nc2scc(C)n2c(=O)c1S(=O)(=O)Nc1ccc(N2CCN(C(=O)C(C)C)CC2)cc1 | inconclusive [cytotoxic, single point] | 
O=C(CSc1nnc(-c2cccnc2)o1)Nc1ccccn1 | inactive | 
Nc1cccc(Oc2c(F)c(F)c(Oc3cccc(N)c3)c(F)c2F)c1 | inconclusive [cytotoxic, single point] | 
Cc1ccc(Nc2nc(-c3ccc(S(=O)(=O)N4CCOCC4)cc3)cs2)cc1Cl | active: 23.1 µM | 

SMILES | Potency | activity, negative = less viability
COc1ccc(N2CCN(C(=O)c3[nH]c(C(F)(F)F)nc3-c3ccccc3)CC2)cc1 | inactive | 
O=[N+]([O-])c1cc(Cl)cc(/C=N/Nc2nc3ccccc3s2)c1O | active: 20.6 µM | 
Cc1nn(-c2ccccc2)c(C)c1S(=O)(=O)O | inconclusive [rising, partial curve, poor fit] | 
c1ccc(-n2cnc3cc(NCc4cccs4)ccc32)cc1 | inconclusive [cytotoxic, single point] | 
Cc1ccc(-n2ncc3c(NNC(=O)Cc4ccccc4)ncnc32)cc1 | inactive | 
COc1ccc(C[C@@H]2OC3(C=CC(=O)C=C3)O[C@H]2Cc2ccc(OC)cc2)cc1 | active: 5.17 µM | 
COc1cc([N+](=O)[O-])ccc1NC(=O)NCC1CCN(Cc2ccc(Cl)cc2)CC1 | inconclusive [cytotoxic, single point] | 
CCOc1ccccc1/C=C/c1nc2ccccc2[nH]c1=O | inactive | 
CCCN(CCC)C1=CC(=[N+]2CCCC2)CC(C)(C)C1 | active: 2.06 µM | 
OCC(CO)(CO)N=Cc1c(O)ccc2ccccc12 | inconclusive [cytotoxic, single point] | 
O=C(N/N=C/C1CC=CCC1)c1cc2ccccc2cc1O (centres undefined) | inconclusive [cytotoxic, single point] | 
CSc1nnc(-c2ccc(Cl)cc2Cl)o1 | inconclusive [rising, partial curve] | 
COc1ccc(C(O)c2nc3ccccc3n2C)cc1OC (centres undefined) | inconclusive [cytotoxic, single point] | 
N=c1sccn1CC(=O)Nc1cc(S(=O)(=O)N2CCCC2)ccc1Cl | inactive | 
CCC(C(=O)NC1CCCC1)N(C(=O)c1snc(C(N)=O)c1N)c1ccc(C)cc1C (centres undefined) | inactive | 
N=c1n(CCN2CCCCC2)c2ccccc2n1CC(O)c1ccc(Cl)c(Cl)c1 (centres undefined) | active: 11.2 µM | 
CC1CCN(CCCNC(=O)c2ccc(CSCc3cccc(Cl)c3)o2)CC1 | inconclusive [cytotoxic, single point] | 
COc1ccc(-c2cc(-c3nc4ccccn4c3NCc3ccccc3)ccc2OC)cc1 | inconclusive [cytotoxic, single point] | 
Fc1ccc(CN2CCN(c3ncnc4scc(-c5ccc(F)cc5)c34)CC2)cc1 |  | inconclusive: -30.8% [cytotoxic]
COc1cccc(-c2cc(NC=O)c3ncc(-c4cc(OC)c(OC)c(OC)c4)n3c2)c1 | inconclusive [cytotoxic, full curve] | 
CC(C)=C1C2CCC1C(C(=O)Nc1sc(C)c(-c3ccc(C(C)C)cc3)c1C(N)=O)C2C(=O)O (centres undefined) | inconclusive [cytotoxic, single point] | 
CCc1ccc(C(=O)Nc2nc3ccccc3[nH]2)cc1 | inconclusive [cytotoxic, single point] | 
O=C(Nc1ccc(-n2cccn2)cc1)C1CCCCN1Cc1cccc2c1OCO2 (centres undefined) | inconclusive [cytotoxic, single point] | 
CSC1=NC(C(Cl)(Cl)Cl)N=C(c2ccccc2)N1 (centres undefined) | inconclusive [cytotoxic, single point] | 
C/C(CCc1ccc2c(c1)OCO2)=N\NC(=O)c1ccccc1Br | inactive | 

SMILES | Potency | activity, negative = less viability
Cc1oc2c(C)c(O)ccc2c(=O)c1-c1cnn(-c2ccccc2)c1 | inactive | 
CC(C)=C1C(=O)NN(c2ccc(F)c(Cl)c2)C1=O | inconclusive [cytotoxic, single point] | 
COc1ccccc1NC(=O)c1nc(S(=O)(=O)Cc2ccccc2)ncc1Cl | active: 11.6 µM | 
O=C(CSc1nc(-c2ccc(Cl)cc2)cs1)Nc1cccc([N+](=O)[O-])c1 | active: 16.4 µM | 
O=S(=O)(c1ccc(F)cc1)N1CCN(c2ccccc2)CC1 | inactive | 
CN(C)Cc1csc(NC(=O)Nc2ccccc2-c2ccccc2)n1 | inconclusive [cytotoxic, single point] | 
CC1CCN(CC(=O)N2CCCc3c2c(=O)oc2ccc(OCc4ccccc4)cc32)CC1 | inconclusive [cytotoxic, single point] | 
O=S1(=O)C=CC(Nc2cccc(Cl)c2)C1 (centres undefined) | active: 10 µM | 
C/C(CC(=O)Nc1ccc(OCc2ccccc2)cc1)=N\NC(=O)C(=O)Nc1ccc(C)c(Cl)c1 | active: 18.4 µM | 
CCOc1ccccc1NC(=O)c1cccc2ccccc12 | inactive | 
CN(C1=NS(=O)(=O)N=C(N(C)c2ccccc2)O1)c1ccccc1 | inconclusive [cytotoxic, single point] | 
O=c1[nH][nH]c2c1[C@H](c1ccc(F)cc1)O[C@H](CCC(F)(F)F)C2 | inconclusive [cytotoxic, single point] | 
Cc1ccc(SCC(=O)Nc2ccc(-c3nnc(-c4ccco4)o3)cc2)cc1 | inconclusive [cytotoxic, single point] | 
COC(=O)c1ccccc1NC(=O)c1ccc(COc2ccccc2)o1 | inactive | 
CCCc1nc2ccccc2c(=O)n1N | inactive | 
Cc1ccc(NC2=NCC(Cc3ccc(Br)cc3)S2)cc1 (centres undefined) | inconclusive [cytotoxic, single point] | 
Cc1nc2cc(-c3ccc(Cl)cc3)nn2c(NCCN(C)C)c1C | inconclusive [cytotoxic, single point] | 
CCc1ccc(C(C)NC(=O)/C(C#N)=C\c2cn[nH]c2-c2ccccc2)cc1 (centres undefined) | inconclusive [cytotoxic, single point] | 
N#C/C(=N\Nc1ccccc1Cl)C(=O)c1ccccc1 | inconclusive [cytotoxic, single point] | 
Cc1ccc(S(=O)(=O)N(C)C)cc1NC(=O)c1cncc(Br)c1 | inconclusive [cytotoxic, partial curve] | 
CC(=O)c1cccc(-c2cnc3c(NC=O)cc(-c4ccccc4F)cn23)c1 | inactive | 
O=C(CNC(=O)c1ccc2c(c1)OCO2)N/N=C(Br)/C=C/c1ccccc1 | inconclusive [cytotoxic, partial curve] | 
C=C1C(=O)OC2C=C(CO)C3OC3C3OC3(C)CC(OC(=O)/C(=C/C)COC(C)=O)C12 (centres undefined) | inactive | 
c1ccc2cc(CNCc3cccc4ccccc34)ccc2c1 | inconclusive [cytotoxic, single point] | 
